# Laboratory results reported in PMC4336329 (PLoS ONE, 2015).
# In all, about 310,000 compounds went through this assay and about 14,000 (4.5%) showed an effect of 50% or more. The effect is printed as a negative number. Some of the results follow.
# Molecular target: human ether-à-go-go-related gene (hERG) potassium channel (human, UniProt Q12809)
# Test: primary screen, population patch clamp on CHO cells stably expressing hERG
# 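Note: peak tail current of the secondary pulse compared with the same well before compound.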
# Chain of human ether-à-go-go-related gene (hERG) potassium channel (Q12809 whole entry, looked up): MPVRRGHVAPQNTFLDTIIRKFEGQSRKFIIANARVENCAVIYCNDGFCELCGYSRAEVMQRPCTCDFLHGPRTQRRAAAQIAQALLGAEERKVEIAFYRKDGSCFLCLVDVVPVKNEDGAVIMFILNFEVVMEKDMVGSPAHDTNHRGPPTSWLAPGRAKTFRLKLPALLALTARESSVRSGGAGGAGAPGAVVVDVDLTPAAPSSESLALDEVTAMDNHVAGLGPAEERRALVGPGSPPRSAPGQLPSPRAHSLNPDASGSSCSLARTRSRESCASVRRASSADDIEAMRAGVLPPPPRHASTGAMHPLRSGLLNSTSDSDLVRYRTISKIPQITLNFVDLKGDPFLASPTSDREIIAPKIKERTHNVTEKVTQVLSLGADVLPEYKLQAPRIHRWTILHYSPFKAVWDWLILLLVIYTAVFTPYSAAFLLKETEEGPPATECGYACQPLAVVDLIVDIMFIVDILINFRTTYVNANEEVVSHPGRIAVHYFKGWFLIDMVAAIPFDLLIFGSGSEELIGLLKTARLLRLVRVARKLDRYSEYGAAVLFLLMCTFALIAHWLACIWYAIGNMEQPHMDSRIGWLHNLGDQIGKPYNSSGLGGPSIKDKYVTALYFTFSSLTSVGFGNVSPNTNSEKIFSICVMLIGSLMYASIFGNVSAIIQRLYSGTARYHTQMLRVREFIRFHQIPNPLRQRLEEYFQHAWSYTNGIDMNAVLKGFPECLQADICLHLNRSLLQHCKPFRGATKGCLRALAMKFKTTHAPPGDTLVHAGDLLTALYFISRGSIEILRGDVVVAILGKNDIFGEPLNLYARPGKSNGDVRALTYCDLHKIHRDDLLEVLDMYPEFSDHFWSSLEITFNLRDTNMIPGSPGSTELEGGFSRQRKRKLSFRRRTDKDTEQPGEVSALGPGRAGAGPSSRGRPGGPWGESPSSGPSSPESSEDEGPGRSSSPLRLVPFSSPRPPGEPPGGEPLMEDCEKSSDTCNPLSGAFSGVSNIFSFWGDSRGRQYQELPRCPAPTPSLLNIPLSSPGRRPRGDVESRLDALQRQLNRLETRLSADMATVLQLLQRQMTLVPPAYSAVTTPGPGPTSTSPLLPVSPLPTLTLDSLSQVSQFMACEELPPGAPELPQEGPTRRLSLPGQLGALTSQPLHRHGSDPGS
row,Compound,"hERG current change (%, negative = inhibition) at 10uM [%]"
1,O=C(Nc1cccc(S(=O)(=O)N2CCCC2)c1)c1ccc2c(=O)n3c(nc2c1)CCCCC3,-57.1
2,COc1ccccc1NC(=S)NCC1CCC(CNC(=S)Nc2ccccc2OC)CC1 (centres unmarked),13.2
3,O=C(/C=C/c1cccc([N+](=O)[O-])c1)NCCN1C(=O)S/C(=C\c2cccnc2)C1=O,-30.6
4,Cc1ccc(S(=O)(=O)N(C)C)cc1NC(=O)c1ccccc1Br,8.54
5,O=C(NCCCN1CCOCC1)C(=O)NCC1CCCO1 (centres unmarked),21.7
6,C/C(=N\N1CCCCCC1)c1c(O)n(-c2ccccc2C)c(=O)[nH]c1=O,-13.7
7,O=C(O)CN1C(=O)c2ccc(Oc3ccc4c(c3)C(=O)N(CC(=O)O)C4=O)cc2C1=O,-2
8,CC(=O)Nc1ccc(NC(=O)CCC(=O)OCC(=O)c2cccc([N+](=O)[O-])c2)cc1,-14.3
9,OC[C@H]1OC(O)[C@H](O)[C@@H]1O (some centres unmarked),-34.5
10,N#Cc1nc(COc2ccccc2Cl)oc1NCc1ccc(F)cc1,0.159
11,CCC1Sc2ccc(S(=O)(=O)CCC(=O)NCc3ccco3)cc2NC1=O (centres unmarked),0.305
12,O=C(NCCCn1ccnc1)C1CCCN(S(=O)(=O)c2cc(Cl)ccc2Cl)C1 (centres unmarked),-60.3
13,COc1ccc(-c2csc(NC3CCCCC3)n2)c(OC)c1,9.68
14,Cc1nc2ccccn2c1P(=Nc1ccccc1)(N(C)C)N(C)C,-52.5
15,CCCn1c(SCC(=O)C(C)(C)C)nc2ccccc21.Cl,-8.31
16,CCOC(=O)[C@@H]1[C@H]2COc3cc(OC)ccc3[C@H]2N2C(=O)N(c3cccc(Cl)c3)C(=O)[C@]12C,12.5
17,CN(C)C(CNC(=O)c1cc(S(=O)(=O)N(C)c2ccc(F)cc2)ccc1Cl)c1ccco1 (centres unmarked),-28.3
18,Nc1ccc(S(=O)(=O)Nc2nccc(/C=C/c3cccc(Br)c3)n2)cc1,15.2
19,COc1cccc(CC(NC(C)=O)C(=O)NC2CCN(S(=O)(=O)c3cccc4ccccc34)CC2)c1 (centres unmarked),3
20,Cl.Fc1ccc(CCNCc2cccc(Cl)c2)cc1,-16.5
21,O=S(=O)(c1cccc(F)c1)N1CCc2sccc2C1c1ccc(OC(F)(F)F)cc1 (centres unmarked),10.8
22,COc1cc(OC)cc(-c2cc3nc(C)c(CCC(=O)Nc4nc(C)cs4)c(C)n3n2)c1,10

row,Compound,"hERG current change (%, negative = inhibition) at 10uM [%]"
1,CCN(c1ccccc1)S(=O)(=O)c1cccc(C(=O)NCCN2CCOCC2)c1,-15.3
2,O=C(NCCCN1CCCCC1)C1CCCN(c2ncnc3c2nc2n3CCCCC2)C1 (centres unmarked),1.8
3,COc1ccc(NC(=O)c2cc3ccccc3cc2OC)cc1OC,8.27
4,O=C1CC(c2ccccc2)CC(O)=C1C=NC1CCCC1 (centres unmarked),-5.2
5,COc1ccc(OC)c(CNC(=O)C2CCN(S(=O)(=O)N3CCCC3)CC2)c1,-6.59
6,CCOc1ccc(N(CC(=O)Nc2cccc(Br)c2)S(C)(=O)=O)cc1,-1.12
7,CC(C)C(NC(=O)c1ccc(Br)cc1)C(=O)NC1=NCCS1 (centres unmarked),-8.44
8,COc1ccc(OC)c(C(c2nnnn2C2CCCC2)N2CCN(c3ccccc3)CC2)c1.Cl (centres unmarked),-40.8
9,CCNC(=S)N1CCc2ccccc2C1,2.33
10,Cc1ccc(OCCCCNC2CCCCC2)c(C)c1.O=C(O)C(=O)O,-42.8
11,Brc1cc2c(cc1Br)OCCOCCOCCO2,-11.5
12,Cc1c(C(=O)c2ccccc2)oc2ccc3ccccc3c12,4.87
13,O=C1N(Cc2cccc(Cl)c2)C[C@@H]2C[C@@H](c3c[nH]c4ccccc34)N3CCC[C@@]123,-74.8
14,COc1cc(C)nc(N2CCCC(C(=O)NC3CCC(C)CC3)C2)n1 (centres unmarked),-0.336
15,COc1ccc(Oc2ccc(C(F)(F)F)cc2NC(=O)CC(CC(=O)O)c2ccccc2)cc1 (centres unmarked),10.6
16,COC(=O)CC(NS(=O)(=O)c1cccs1)c1ccc2c(c1)OCO2 (centres unmarked),16.1
17,Cc1ccnc(NC(=O)c2ccccc2[N+](=O)[O-])c1,9.55
18,CCc1ccc(/C=N/NC(=O)Cc2cccn2C)cc1,-0.053
19,NC(=O)c1oc2ccccc2c1NC(=O)c1ccccc1,3.73
20,S=C(NCCCN1CCOCC1)N1CCN(c2nc(-c3ccccc3)cs2)CC1,-12.8
21,Cc1cnc(C)c(N2CCN(C(=O)C3CCC(=O)N(CCc4cccc(F)c4)C3)CC2)n1 (centres unmarked),-53.9
22,COc1cccc(C(=O)NNC(=O)c2cccnc2)c1,20.4

row,Compound,"hERG current change (%, negative = inhibition) at 10uM [%]"
1,Cc1oc(-c2ccccc2F)nc1CN1CCC(C(=O)NCc2ccco2)CC1,-38
2,O=C(NCCc1ccc(Cl)cc1)C1CCCN(S(=O)(=O)c2cnc[nH]2)C1 (centres unmarked),-3.31
3,Br.Cc1nc(SC2C=CS(=O)(=O)C2)n[nH]1 (centres unmarked),10.6
4,COCCn1c(SC(C)C(=O)Nc2ccc3c(c2)OCCO3)nc2ccccc2c1=O (centres unmarked),-1.62
5,COc1ccc(CNCC(=O)Nc2cc(OC)cc(OC)c2)cc1.O=C(O)C(=O)O,4.46
6,COc1cccc(C(=O)OCCN2C(=O)c3ccccc3C2=O)c1OC,4.5
7,COc1ccc(C(CC(=O)O)NC(=O)COc2ccc(C)cc2)cc1OC (centres unmarked),15.2
8,O=C(Cc1ccc(Cl)cc1)NCCc1c[nH]c2ccccc12,-19.8
9,O=C(O)/C=C/C(=O)Nc1ccccc1SC(F)(F)F,5.74
10,Cn1c(C(=O)O)c(CC(=O)N2CCN(Cc3ccccc3)CC2)c2ccccc21,12.1
11,CSc1n[nH]c(N)c1S(=O)(=O)c1ccc(Cl)cc1,4.54
12,Cc1ccc(-n2c(Cc3cccs3)nnc2SCC(=O)Nc2ccc(S(N)(=O)=O)cc2)cc1,-12.3
13,O=C(COc1ccc(S(=O)(=O)N2CCCC2)cc1)Nc1ccc(F)cc1,5.18
14,O=C(OC1CCOC1=O)c1ccc(NS(=O)(=O)c2cccs2)cc1 (centres unmarked),21.8
15,COc1cccc(SCc2noc(C(=O)NCCN(C)C)c2C(=O)NCCN(C)C)c1,10.3
16,COC(=O)[C@H](Cc1ccccc1)NC(=O)NCc1ccc(C)cc1,-21.3
17,CC1CN(C(=O)c2ccc(C(=O)c3ccccc3)cc2)CC(C)O1 (centres unmarked),3.89
18,Cc1nn(-c2ccccc2)c(C)c1NC(=O)CCl,1.23
19,CCc1ccc(OCC(=O)N(Cc2ccccc2)C2CCS(=O)(=O)C2)cc1 (centres unmarked),-30
20,Cc1ccc(C(C(=O)NC2CCCC2)N(Cc2cccnc2)C(=O)c2snc(C(N)=O)c2N)o1 (centres unmarked),-16.2
21,CCOc1ccc(NC(=S)NCCCN2CCN(c3ccc(OC)cc3)CC2)cc1,-70.7
22,O=C(COc1ccccc1Cl)NC(=S)N1CCc2ccccc21,-25.8

row,Compound,"hERG current change (%, negative = inhibition) at 10uM [%]"
1,CCOC(=O)C(=CNc1ccc2c(c1)CCN2C(C)=O)C(=O)OCC,-12.5
2,Nc1n[nH]c2cc(=O)n(-c3cccc(C(F)(F)F)c3)nc12,15.1
3,Cn1c(=O)cc(SCC(=O)N2CCN(c3ccccc3)CC2)c2ccccc21,-30.9
4,CC(C)C(C(=O)NC1=NCCS1)c1ccc(Cl)cc1 (centres unmarked),24.2
5,C/C(=N/NC(=O)c1sc(=S)n(C)c1C)c1ccccc1,24.6
6,Cc1ccc(NC(=O)c2ccccc2OCC(=O)Nc2cccc(Cl)c2C)nc1,6.67
7,COc1ccc(CCN(Cc2cc3ccc(C)cc3n3nnnc23)C(C)=O)cc1OC,-32.7
8,c1ccc(Nc2nc(-c3ccccn3)cs2)cc1,-2.41
9,COc1ccc(OC)c(/C=C(\NC(=O)c2ccccc2)C(=O)N/N=C/c2ccc(C)s2)c1,-28.3
10,Cc1ccc(CNC(=O)Nc2cccs2)cc1,-3.95
11,COC(=O)c1c(N)n(-c2ccc(NC(C)=O)cc2)c2nc3ccccc3nc12,8.25
12,O=C(NNc1nc2ccccc2o1)c1ccccc1,-37.6
13,C/C(=N/NC(=O)CNC(=O)c1ccccc1)c1ccc(C)cc1,-41.5
14,CN(C)S(=O)(=O)c1ccc(C(=O)NCCC(=O)N2CCCC2)cc1,15.3
15,COc1ccc(CCNC(=O)CN2C(=O)c3ccccc3S2(=O)=O)cc1,-7.12
16,CCOC(=O)c1c(NC(=O)COC(=O)c2nccnc2N)sc2c1CCC2,10.4
17,COc1ccc(CNC(=O)CN2C(=O)NC(C)(c3ccc(C(C)(C)C)cc3)C2=O)cc1 (centres unmarked),-10.6
18,COc1ccc(NS(=O)(=O)c2ccc(N/N=C(\C)c3ccncc3)c([N+](=O)[O-])c2)cc1,4.88
19,Oc1ccccc1OCc1nc2ccccc2s1,-13.7
20,O=C(CSc1nc(-c2ccccc2)cc(C(F)(F)F)n1)NCCN1CCOCC1,-14.8
